# Source: PubChem BioAssay AID1865 (National Center for Advancing Translational Sciences (NCATS), 2009)
# Among all 280,000 compounds or so, about 540 (0.19%) were called active. Inconclusive means that the source gave no clear call. Such entries were picked first, then a sample of the others. Calls follow the shape of the dose curve; as a rule, active = well fitted activation curve with a large enough effect; inconclusive = small, poorly fitted or top-dose-only effect; inactive = flat fitted curve, though single readings scatter. Potencies of inconclusive entries are doubtful fits and often do not repeat.
# Assay: Quantitative High-Throughput Screen for Regulators of Epigenetic Control; also: nearly all actives have a fitted effect of over 60% in size; as to GFP activation: % of control where 0% means no effect
# Conditions: murine LDR cells, GFP reporter derepression, 30 h; GFP activation: at 53.9 µM (top of the series)
# Procedure, shortened: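 Murine LDR cells bearing a silenced CMV-driven GFP reporter were exposed to compound for 30 h at 37 C. After PBS washes, GFP-positive cells (20-120 um objects) counted by laser-scanning microplate cytometry.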
# Potency is read from the fitted curve at half-maximal effect; tags tell the direction and shape of the fitted curve.
SMILES,Potency,GFP activation
COc1ccc(NC(=O)c2nc(SCc3ccc(F)cc3)ncc2Cl)cc1,"inconclusive: 11.2 µM [activator, partial curve, poor fit]",–
C/C(=N\NC(=O)Cc1ccc(Cl)cc1)c1ccccn1,"inconclusive: 5.62 µM [activator, single point]",–
C=CCNC(=S)N/N=C(\C)c1ccc(OC)cc1,"inconclusive: 35.5 µM [activator, single point]",–
Cc1ccc(-n2ncc3c(NCCc4ccc(S(N)(=O)=O)cc4)ncnc32)cc1,–,inactive: 0.107%
Cc1cc(NC(=O)CSc2nnc(C(C)N(C)C)n2Cc2ccccc2)no1 (centres undefined),"inconclusive: 35.5 µM [activator, single point]",–
Cc1cnc(NC(=O)CSc2nnc(COc3c(C)cccc3C)o2)s1,–,inactive: -0.98%
CCOC(=O)c1cccc(NC(=O)CSc2ncc3c(n2)-c2ccc(Cl)cc2N(Cc2ccccc2)S3(=O)=O)c1,"inconclusive: 15.8 µM [activator, single point]",–
CCN(CC)S(=O)(=O)c1ccc2c(c1)N(CC(=O)Nc1c(C)cccc1C)C(=O)C1CCCN21 (centres undefined),"inconclusive: 35.5 µM [activator, single point]",–
S=C(Nc1ccccc1)Nc1nc2ccccc2n1CCOc1ccc(Br)cc1,"inconclusive: 31.6 µM [activator, single point]",–
O=c1[nH]c(CN2CCN(c3ccccc3)CC2)nc2scc(-c3ccccc3)c12,"inconclusive: 22.4 µM [activator, single point]",–
COc1ccc(OC)c(NC(=O)C(=O)NNC(=O)C23CC4CC(CC(C4)C2)C3)c1,"inconclusive: 31.6 µM [activator, single point]",–
CN(C)c1ccc(/C=C2\N=C(c3ccc(Cl)c([N+](=O)[O-])c3)NC2=O)cc1,"inconclusive: 20 µM [activator, single point]",–
CCOC(=O)/C=c1\s/c(=C\c2sccc2C)c(=O)n1CC(=O)NCc1ccc(C)cc1,active: 7.94 µM,–
C/C(CC(=O)NC12CC3CC(CC(C3)C1)C2)=N\NC(=O)c1cnccn1,"inconclusive: 35.5 µM [activator, single point]",–
O=C1C(=C2CCCCC2)SC(=S)N1Cc1ccco1,"inconclusive: 28.2 µM [activator, single point]",–
CC(=O)C1C(=O)c2c(cccc2[N+](=O)[O-])C1=Nc1ccccc1C (centres undefined),"inconclusive: 0.0355 µM [activator, full curve, poor fit]",–
COCCn1c(-c2ccc(-c3ccc([N+](=O)[O-])cc3Br)o2)nc2c1c(=O)[nH]c(=O)n2CC(C)C,"inconclusive: 31.6 µM [activator, single point]",–
N#Cc1c(C(F)(F)F)cc(-c2cccs2)nc1SCC(=O)Nc1cccc(Br)c1,active: 10 µM,–
CCOc1ccc(NS(=O)(=O)c2ccc(C(=O)N3CCN(c4ncccn4)CC3)cc2)cc1,–,inactive: -1.06%
CCOC(=O)c1sc(NC(=O)c2nc3nc(C)cc(C(F)F)n3n2)c(C(=O)OC(C)C)c1C,–,inactive: -0.962%
CCN(Cc1ccccc1)S(=O)(=O)c1ccc(S(=O)(=O)N2CCN(C)CC2)cc1,–,inactive: -0.952%
Cc1cc(C)cc(-n2c(C)cc(/C=N/NC(=O)CN(c3c(C)cccc3C)S(C)(=O)=O)c2C)c1,–,inactive: 0%
Cc1cc2c(n1-c1ccc(C(=O)NCc3cccc(Br)c3)cc1)CCC(C)C2 (centres undefined),"inconclusive: 15.8 µM [activator, single point]",–

SMILES,Potency,GFP activation
CCCCNC(=O)c1cc(-c2ccc(F)cc2)on1,"inconclusive: 35.5 µM [activator, single point]",–
COc1ccc(-c2cc(C(F)(F)F)nc(SCC(=O)N3CCCCC3)n2)cc1,"inconclusive: 35.5 µM [activator, single point]",–
CCOc1ccc(S(=O)(=O)N/N=C(\C)c2ccc(Cl)c(Cl)c2Cl)cc1,"inconclusive: 25.1 µM [activator, single point]",–
CCOC(=O)c1c(C)oc2nc(C)nc(NCCCN3CCN(c4ccccc4OC)CC3)c12,–,inactive: -1.27%
COc1ccccc1C(=O)Nc1ccccc1C(=O)OCc1cc(=O)n2c(C)csc2n1,"inconclusive: 10 µM [activator, partial curve]",–
N#Cc1ccc(-c2cccnc2)nc1SCC(=O)Nc1sc2c(c1C#N)CCC2,"inconclusive: 22.4 µM [activator, single point]",–
COc1ccc(-c2cc(C(F)F)n3ncc(C(=O)N4CCc5ccccc54)c3n2)cc1,"inconclusive: 0.891 µM [activator, full curve]",–
c1ccc(Oc2c3ccccc3nc3ccccc23)cc1,"inconclusive: 31.6 µM [activator, single point]",–
Nc1oc2ccc(F)cc2c(=O)c1C=O,"inconclusive: 25.1 µM [activator, partial curve]",–
Cc1nc2nc(NC(=O)C(C)C)[nH]n2c(=O)c1Cc1ccccc1,"inconclusive: 12.6 µM [activator, single point]",–
N#CC(C#N)=Cc1ccc(-c2ccc(S(=O)(=O)N=C(N)N)cc2)o1,"inconclusive: 31.6 µM [activator, single point]",–
CC1=C(c2ccc(F)cc2)S(=O)(=O)NC1=NCc1ccccc1Cl,"inconclusive: 15.8 µM [activator, single point]",–
Cc1cc(C)n(-c2nnc(C)n2N)n1,–,inactive: -1.03%
CC(C)C(=O)Nc1nnc(NC(=S)Nc2ccccc2)s1,–,inactive: 1.06%
CCOc1ccc(/C=C(\C#N)C(=O)Nc2sc3c(c2C(=O)OC)CCC3)cc1OC,–,inactive: -1.59%
CCN(CC)c1ccc2cc(C(N)=O)c(=O)oc2c1,"inconclusive: 31.6 µM [activator, single point]",–
Cc1ccc(CSc2nccc(-c3c(C)nc4ccccn34)n2)cc1,–,inactive: -0.343%
CC(=O)c1ccc(NC(=O)CSc2nnc3c(n2)[nH]c2ccccc23)cc1,"inconclusive: 35.5 µM [activator, single point]",–
COC(=O)C1=C(O)/C(=C\c2ccc(CNC(=O)C(=O)Nc3ccc(C)c(C)c3)o2)N=C1C,"inconclusive: 25.1 µM [activator, single point]",–
Oc1c(C(c2ccccc2Cl)N2CCCC2)ccc2cccnc12 (centres undefined),"inconclusive: 22.4 µM [activator, single point]",–
O=c1nc(/C=C/c2ccc(-c3ccc(F)cc3)o2)cc(C(F)(F)F)[nH]1,"inconclusive: 11.2 µM [activator, partial curve, poor fit]",–
CCN1/C(=C/c2ccc3cc(C)cc(C)c3[n+]2CC)Sc2cc(C)ccc21,active: 15.8 µM,–
COc1ccc(N(C(=O)c2ccc(Cl)cc2)S(=O)(=O)c2ccc(C)cc2)cc1,–,inactive: 0%

SMILES,Potency,GFP activation
COCCn1c(N)c(C(=O)NS(=O)(=O)c2ccc(C)cc2)c(=O)[nH]c1=O,–,inactive: -2.65%
COc1ccccc1Cc1nc2ccccc2nc1SCC(=O)Nc1ccccc1C(F)(F)F,"inconclusive: 28.2 µM [activator, single point]",–
CN(C)S(=O)(=O)c1cccc(NC(=S)N/N=C/c2cc(Br)ccc2O)c1,–,inactive: 13.6%
O=CN/N=C/c1c(O)ccc2ccccc12,"inconclusive: 31.6 µM [activator, single point]",–
N#C/C(=C/c1ccc(N2CCCCC2)o1)c1cccc(F)c1,active: 6.31 µM,–
O=c1oc2ccc(Cl)cc2nc1/C=C(\O)c1ccco1,"inconclusive: 10 µM [activator, partial curve, poor fit]",–
O=C(O)c1cc(S(=O)(=O)Nc2ccc3oc(=O)sc3c2)ccc1O,–,inactive: -1.55%
S=C(c1ccc(N2CCOCC2)cc1)N1CCOCC1,–,inactive: -0.848%
O=C(NCCN1CCOCC1)c1ccc(Cc2nc3ccccc3[nH]2)cc1,–,inactive: 0.924%
Cc1ccc2cc(CN(C(=O)c3cccs3)c3ccccc3)c(=O)[nH]c2c1,"inconclusive: 35.5 µM [activator, single point]",–
COc1ccc(Cl)cc1NC(=O)Cn1c(=O)n(CCCC(=O)NCCc2ccc(OC)c(OC)c2)c(=O)c2ccccc21,"inconclusive: 35.5 µM [activator, single point]",–
Clc1cccc(Cl)c1CNc1ccc(N2CCCC2)cc1,–,inactive: 0.276%
CCn1c(SCC(=O)Nc2ccc(NC(=O)c3ccco3)c(OC)c2)nc2ccccc2c1=O,"inconclusive: 15.8 µM [activator, partial curve]",–
Cc1ccc(-c2nc(-c3cc4cccc(OCc5cccc(F)c5)c4oc3=O)no2)cc1,"inconclusive: 31.6 µM [activator, single point]",–
Cc1nc(SCC(=O)c2ccc(F)c(F)c2)[nH]c(=O)c1Oc1ccc(Cl)cc1,–,inactive: -1.37%
Cc1ccc(C)n1-c1ccc(C(=O)NCc2ccncc2)cc1,–,inactive: -1.37%
Cc1ccc(-c2nc(CSCC(=O)N3CCN(c4ccccn4)CC3)c(C)o2)cc1,–,inactive: 0%
COc1cccc(C(=O)Nc2ccc3nc(N4CCN(c5ncccn5)CC4)cc(C)c3c2)c1OC,"inconclusive: 35.5 µM [activator, single point]",–
O=C(CCCn1c(=O)[nH]c2ccccc2c1=O)N1CCN(c2ccccn2)CC1,"inconclusive: 0.631 µM [activator, full curve, poor fit]",–
CCOc1ccc(C(=O)NC(=S)Nc2ccccn2)cc1[N+](=O)[O-],"inconclusive: 28.2 µM [activator, single point]",–
O=C(Nc1cc(-c2nc3cc(Cl)ccc3o2)ccc1Cl)c1cccc2ccccc12,"inconclusive: 28.2 µM [activator, single point]",–
C(=C\c1cccc2ccccc12)/c1nnc(-c2cccs2)o1,–,inactive: -2.33%
Cc1ccc(C)c(NC(=O)CSc2ncc3c(n2)-c2ccccc2N(Cc2ccccc2C)S3(=O)=O)c1,"inconclusive: 12.6 µM [activator, single point]",–
